Experimental data from the supplement of paper PMC12217912.
The list shows a part of the results. The full chains were built here from the parent and the listed change. Inactive controls read about 0.05.

B1: TEV protease; numbered along this chain (parent)
chain: MGESLFKGPRDYNPISSSICHLTNESDGHTTSLYGIGFGPFIITNKHLFRRNNGTLVVQSLHGVFKVKDTTTLQQHLVDGRDMIIIRMPKDFPPFPQKLKFREPQREERICLVTTNFQTKSMSSMVSDTSCTFPSGDGIFWKHWIQTKDGQCGSPLVSTRDGFIVGIHSASNFTNTNNYFTSVPKNFMELLTNQEAQQWVSGWRLNADSVLWGGHKVFMVKPEEPFQPVKEATQL

Variants of: B1
Test: raw area under fraction-flipped curve 0-4 h after induction (AUC4h, not background-subtracted), DNA-recorder readout of cleavage of the substrate (dimensionless); higher = more cleavage of the substrate by the protease variant
Details: temperature: 34 °C; time window: 0-4 h after rhamnose induction
Protocol: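 In vivo DNA recorder in E. coli TOP10(DE3) ΔrhaA at 34 °C. Each TEVp single-site mutant (parent TEVp 0) is paired with a single-site variant of the 7-mer TEVs (canonical ENLYFQ|S). The substrate sits between flexible linkers in a Bxb1-sfGFP-TEVs-SsrA fusion, so cleavage stabilises Bxb1 and speeds flipping of a recombination array, read by NGS. The value is the raw area under the fraction-flipped curve over 0-4 h after rhamnose induction (AUC4h), with ≥20 reads per time point. It is not background-subtracted; inactive controls average about 0.047.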
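Further: Bxb1 expression induced with 0.2% (w/v) L-rhamnose at OD600 near 0.5, cultures sampled hourly, flipped fraction per protease–substrate barcode pair counted by paired-end Illumina sequencing.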

Variant	area with substrate ENAYFQS	area with substrate ENCYFQS	area with substrate ENEYFQS	area with substrate ENGYFQS	area with substrate ENKYFQS	area with substrate ENPYFQS	area with substrate ENVYFQS	area with substrate ENDYFQS	area with substrate ENFYFQS	area with substrate ENNYFQS	area with substrate ENQYFQS	area with substrate ENSYFQS	area with substrate ENHYFQS	area with substrate ENMYFQS	area with substrate ENRYFQS	area with substrate ENTYFQS	area with substrate ENWYFQS	area with substrate ENYYFQS	area with substrate ENIYFQS
V183N	0.0693	0.0771	0.0702	0.0697	0.0597	0.0526	0.0787												
T129V	0.0499	0.0703	0.0637					0.0669	0.0722	0.0606	0.062	0.0654							
L191M	0.0526	0.0641	0.0492	0.0589	0.0741	0.0657	0.067	0.0928	0.0521	0.0612	0.0312	0.057	0.0584	0.0761	0.0523	0.0754	0.0437	0.0687	
L191G	0.0521	0.0467		0.0637	0.0598	0.0667	0.0588	0.0438		0.0537	0.0476	0.0502	0.0539				0.0461		0.069
Q198D	0.0504		0.0562	0.0725	0.0601		0.0758	0.0691	0.0715		0.0619	0.0611	0.0648	0.0551	0.0556	0.063	0.0451		
Q198E	0.0666	0.0706						0.0553	0.0655	0.0796	0.0579	0.0666				0.0603		0.0561	0.124
Q198R	0.0721	0.0678		0.105	0.0676		0.0775	0.0646	0.0517	0.0601	0.0557	0.057	0.0557	0.079	0.0541	0.0734			
F226I	0.0533	0.0786	0.0619	0.058		0.0485	0.0734	0.0524	0.0577		0.0626	0.0593	0.0467	0.0593		0.0688	0.0614		
T70Q	0.0443	0.0692	0.0394	0.0602						0.0815	0.0555	0.028	0.0689	0.0737	0.0546	0.057			0.0791
T30Q	0.0637		0.0533	0.0595	0.0633		0.0711	0.042	0.0612			0.0589	0.0512	0.0865	0.0518	0.0671			0.115
F41T	0.0649		0.0584		0.0595		0.0776				0.0553	0.0645	0.0519			0.0584	0.0455	0.0574	
R81F	0.068	0.056	0.0538	0.0838		0.0602		0.088	0.0574	0.0554			0.0649	0.107	0.0438	0.0598			0.076
H143D	0.0167		0.0617		0.0627		0.0446	0.0529			0.0609	0.0587			0.0491	0.0598			
G202H	0.0534	0.0606	0.0532			0.061			0.0582	0.0709	0.0683	0.0569			0.0609	0.0592		0.0511	
S130P	0.038				0.0469		0.0602	0.0399	0.0373		0.025	0.0607							
E231Q	0.0627	0.0714		0.0705	0.0907		0.0822		0.0673	0.0648	0.0548		0.0668						0.132
E107H	0.0596	0.0544	0.0603	0.069	0.0638					0.0825	0.066	0.0546	0.0564	0.0746	0.0527	0.0639	0.0032	0.0428	0.136
I36Q	0.0599			0.0556	0.05	0.0479	0.0482	0.063			0.0423	0.0726	0.056	0.0476	0.0525	0.0304		0.051	0.069
M125R	0.0686	0.0634	0.069		0.0579	0.0965	0.0653	0.0659	0.0675	0.0569	0.0664	0.0553			0.0565	0.0719	0.0568	0.0594	0.106
M125E	0.0592	0.0515	0.0675	0.0606	0.0564			0.0602		0.058	0.066	0.0628			0.0523	0.0584			
P155H	0.034	0.0578	0.0516	0.0378			0.0596	0.0494	0.0576		0.0321	0.0596			0.0635		0.0535		0.0478
H29K	0.0648		0.071	0.0656							0.0415			0.0645	0.0641				
I43W	0.0554	0.0528	0.0433		0.0407	0.0401	0.044	0.0497		0.0647	0.0378	0.0515	0.0596	0.0363	0.053	0.0533		0.0379	
F38T	0.054	0.0499	0.0606	0.0549	0.059	0.0663	0.0712	0.0602	0.0571	0.0631	0.0543	0.0689	0.0555		0.0525		0.0576	0.0647	0.0907
F6V	0.0588	0.0907		0.0596				0.0482		0.0687				0.0845	0.0516			0.0664	
W141R	0.0405	0.0625	0.0623		0.0502	0.0601	0.0491	0.0563		0.0539	0.0531	0.0617	0.0533				0.052		
H168C	0.0631		0.106	0.056		0.0671	0.0429		0.056		0.0544			0.0804	0.0672	0.0417			
D137Y	0.0675		0.067	0.0529	0.0572	0.0623	0.0736	0.0603		0.0496	0.0174	0.0557	0.0636	0.0528	0.122		0.0563	0.0538	
S154C	0.0607	0.0768	0.059	0.0637	0.0617		0.0789	0.0482	0.0657	0.0762	0.0462	0.105	0.0529	0.0742	0.0674			0.0686	
